Laboratory results as given in publication PMC5892938.
Some of the results follow. At the low end of the ranking the order means little.

These sequences were tested against GST-SBP-SLBP (stem-loop binding protein) (UniProt Q14493) (assay: targeted RNA Bind-n-Seq). Settings: RBNS binding buffer: 25 mM Tris pH 7.5, 150 mM KCl, 3 mM MgCl2, 0.1% Tween, 0.5 mg/mL BSA, 1 mM DTT; 27 nM protein, 750 pM RNA pool; temperature not stated; high values mean tight binding.
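Also: DESeq read counts versus GST-SBP nonspecific binding control pulldown.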

Sequence	binding signal (log2 fold change)
GGUCACGUCUCAAUCAACUCAACUCCCAGGGAAAACCCUGGUUAUUUCAACAGCUCGCAGUCAAG	-0.253
GGUCACGUCUCAAUCAACUCUUUUCCCAGGGAAAUCCCUGGUAUACUCAACAGCUCGCAGUCAAG	0.016
GGUCACGUCUCAAUCAACUCUUUUUCCAGGGAAAUCCCUGGCAAUUUCAACAGCUCGCAGUCAAG	-0.0146
GGUCACGUCUCAAUCAACUCUUUCUCCAGGGAAAUCCCUGGCAUAUUCAACAGCUCGCAGUCAAG	0.278
GGUCACGUCUCAAUCAACUCUAUCCCAGGAGUUUCCUCCUGUAAACUCAACAGCUCGCAGUCAAG	-0.02
GGUCACGUCUCAAUCAACUCCAAAGAGGGGGGGAAAACCCCUUUACCCUCGAUAUCAACAGCUCGCAGUCAAG	0.139
GGUCACGUCUCAAUCAACUCCAAAGAGGGGGGGAAAACCCCUUUACCCUCAUAAUCAACAGCUCGCAGUCAAG	-0.269
GGUCACGUCUCAAUCAACUCAUCCCCAGGAGUUUACUCCUGUUUAGUCAACAGCUCGCAGUCAAG	0.458
GGUCACGUCUCAAUCAACUCAUUCGCAGGAGUUUUCUCCUGGUUUUUCAACAGCUCGCAGUCAAG	-0.198
GGUCACGUCUCAAUCAACUCCUAAGAGGGGGGGAAAACCCCUUUACCCUCCACAUCAACAGCUCGCAGUCAAG	0.0401
GGUCACGUCUCAAUCAACUCAAUCCCAGGAGUUUUCUCCUGUUAAUUCAACAGCUCGCAGUCAAG	-0.176
GGUCACGUCUCAAUCAACUCAUGUCCAGGAGUUUACUCCUGCUAAUUCAACAGCUCGCAGUCAAG	-0.0995
GGUCACGUCUCAAUCAACUCAUCGCCCAGGGAAACCCCUGGUAAUCUCAACAGCUCGCAGUCAAG	0.0303
GGUCACGUCUCAAUCAACUCAUCCUCAGGAGUUUACUCCUGCUUAUUCAACAGCUCGCAGUCAAG	0.0841
GGUCACGUCUCAAUCAACUCUAUCUCAGGAGUUUCCUCCUGCUAACUCAACAGCUCGCAGUCAAG	0.187
GGUCACGUCUCAAUCAACUCAUUCUCAGGAGUUUCCUCCUGCAUUCUCAACAGCUCGCAGUCAAG	0.0471
GGUCACGUCUCAAUCAACUCCUAAGAGGGGGGGAAAACCCCUUUACCCUCACAAUCAACAGCUCGCAGUCAAG	-0.591
GGUCACGUCUCAAUCAACUCAUCUCCAGGAGUUUGCUCCUGCUAUUUCAACAGCUCGCAGUCAAG	5.34e-05
GGUCACGUCUCAAUCAACUCAUCCUCCAGGGAAAUCCCUGGCUAACUCAACAGCUCGCAGUCAAG	0.0691

Sequence	binding signal (log2 fold change)
GGUCACGUCUCAAUCAACUCAUCCCCCAGGGAAAACCCUGGUAAUCUCAACAGCUCGCAGUCAAG	-0.23
GGUCACGUCUCAAUCAACUCUUCCCCAGGAGUUUCCUCCUGUAUAUUCAACAGCUCGCAGUCAAG	0.144
GGUCACGUCUCAAUCAACUCAUCAGAGGGGGGGAAAACCCCUUUACCCUCGUUCUCAACAGCUCGCAGUCAAG	0.21
GGUCACGUCUCAAUCAACUCAAUUUCCAGGGAAAACCCUGGCAUACUCAACAGCUCGCAGUCAAG	-0.173
GGUCACGUCUCAAUCAACUCUUUCUCCAGGGAAAACCCUGGUUUAUUCAACAGCUCGCAGUCAAG	-0.172
GGUCACGUCUCAAUCAACUCUAUCUCAGGAGUUUUCUCCUGUUUUCUCAACAGCUCGCAGUCAAG	0.0085
GGUCACGUCUCAAUCAACUCAACUCCCAGGGAAAUCCCUGGUAAUCUCAACAGCUCGCAGUCAAG	-0.103
GGUCACGUCUCAAUCAACUCAUCCCCAGGAGUUUACUCCUGUUAAUUCAACAGCUCGCAGUCAAG	0.0839
GGUCACGUCUCAAUCAACUCAUACGAGGGGGGGAAAACCCCUUUACCCUCAUCUUCAACAGCUCGCAGUCAAG	-0.118
GGUCACGUCUCAAUCAACUCAUCCUCAGGAGUUUCCUCCUGCUAUUUCAACAGCUCGCAGUCAAG	0.0907
GGUCACGUCUCAAUCAACUCAUCGCCAGGAGUUUACUCCUGCAAUUUCAACAGCUCGCAGUCAAG	-0.0847
GGUCACGUCUCAAUCAACUCAAUCUCCAGGGAAAACCCUGGCAUUCUCAACAGCUCGCAGUCAAG	0.0482
GGUCACGUCUCAAUCAACUCAUCGUCAGGAGUUUUCUCCUGUUAUCUCAACAGCUCGCAGUCAAG	-0.02
GGUCACGUCUCAAUCAACUCUAUUUCCAGGGAAAACCCUGGUUUUCUCAACAGCUCGCAGUCAAG	-0.0315
GGUCACGUCUCAAUCAACUCUUCUUCCAGGGAAAUCCCUGGUUUACUCAACAGCUCGCAGUCAAG	0.00957
GGUCACGUCUCAAUCAACUCAAUCUCAGGAGUUUACUCCUGUAUAGUCAACAGCUCGCAGUCAAG	-0.00804
GGUCACGUCUCAAUCAACUCAUUCCCCAGGGAAACCCCUGGCUUUUUCAACAGCUCGCAGUCAAG	-0.00462
GGUCACGUCUCAAUCAACUCAAUCUCAGGAGUUUUCUCCUGUAAAGUCAACAGCUCGCAGUCAAG	-0.0456
